The chains are these.
B1: tRNA (parent)
chain: CUCUCGGUAGCCAAGUUGGUUUAAGGCGCAAGACUUUAAUUUAUCACUACGAAAUCUUGAGAUCGGGCGUUCGACUCGCCCCCGGGAGAUUUUUUCCUCGAGCAA

Variants at the floor of the assay are shown more often than the library holds them. Some results are limits rather than exact numbers.

In the data set the parent is B1. In words: nonsense suppression (GFP-seq) (ratio to wild type); higher = more function; SUP4oc tRNA, yeast GFP reporter sort-seq. The essentials:
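Nonsense suppression (GFPSEQ) is the median GFP/RFP ratio of each sorting bin, weighted by the variant's estimated share of cells in that bin and expressed relative to the unmutated parent tRNA. Yeast strains carried genome-integrated variants of an ochre-suppressor tRNA from a library with ~3% random mutations, plus a galactose-driven GFP ochre reporter and RFP, and were grown in raffinose/galactose medium containing 80 mg/L adenine. Cells were sorted into GFP/RFP bins, each bin was Illumina-sequenced (phred ≥30), and variants were kept only with ≥100 reads and ≥30 cells.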
Regarding CUCUCGGUGGCCAAGUUGGUUUAAGGCGCAAGACUUUAAUUUAUCACUACGAAAUCUUGAGAUCGGGUGUUCGACUCGCCCCCGGGAGAUUUUUUCCUCGAGCAA [A9G C68U], the nonsense suppression was 0.153. Consider CUCUCGGUAGCCAAGUUGGUUUCAGGCGAAAGACUUUAAUUUAUCACUACGAAAUCUUGAGAUCGGGCGUUCGACUCGCCCCCGUGAGAUUUUUUCCUCGAGCAA [A23C C29A G85U], for which the nonsense suppression is at most 0.026.

As to CUCUGGGUAGCCUAGUUGUUUUAAGGCGCAAGACGUUAAUUUAUCACUACGAAAUCUUGAGAUCGGGCGUUCGACUCGCCCCCGGGGGAUUUUUUCCUCGAGCAA [C5G A13U G19U U35G A87G], the nonsense suppression is at most 0.026. Regarding CUCUCGGUAGCCAAGUUGGUUUAAGGCUCCAGGCUUUAAUUUAUCACUACGAAGUCUUGAGAUCGGGCGUUCGACCCGACCCCGGGAGAUUUUUUCCUCGAGCAA [G28U A30C A33G A54G U76C C79A], the nonsense suppression is at most 0.026. In the case of CUCUCGGUAGCCAAGUUGGUUUACGGCGCAAGACUUUAAUUUAUCACUACGAAAUCUUGAGAUCGGGCGUUCGACUCGCCCCUGGGAGAUUUUUUCCUCGAGCAA [A24C C83U], the nonsense suppression was 0.383.

CUCGCGGUAGCCAAGUUGGUUUAAGGCGCAAGACUUUAAUUUAUCACUACGAAAUCUUGAGAUCGGGCGUUCGACUCGCGCCCGGGAGAUUUUUUCCUCGAGCAA [U4G C80G]: the nonsense suppression was at most 0.026. Turning to CUUUUGGUAGCCAAGUUGGUUUAAGGACAAAGACUUUAAUUUAUCACUACGAAAUCUUUAGAUCGGGCGUUCGACUCGCCCCCGAGAGAUUUUUUCCUCGAGCAA [C3U C5U C27A G28C C29A G59U G85A], the nonsense suppression was at most 0.026.

CUCUCGGUAGCCCUGUUGGUUUAAGGCGCAAGACUUUAAUUUAUCACUACGAAAUCUUGAGAUCGGGCGUUCGACUCGCCCCCGGGAGAUUUUUUCCUCGAGCAA [A13C A14U]: the nonsense suppression came to 0.206.

With CUCUCGGUAGCCAAGUUGGUUUAAGGCGCAAGACUUUAAUUUAUCACUACGAAAUCUUGAGAUUUGGCGUUCGACUCGCCCCCGGUAGAUUUUUUCCUCGAGCAA [C64U G65U G86U], the nonsense suppression is at most 0.026. As to CUCUCGGUAGCCAAGUUGGUUUAAGGCGCAAGACUUUAAUUUAUCACUACGAAAUCUUGAGAUCGGGCGUUCGACUCGCCGCCGGGAUAUUUUUUCCUCGAGCAA [C81G G88U], the nonsense suppression is at most 0.026. As to CUCUCGUUAGCCAAGUAGGUUCAAGGCGCAAGACUUUAAUUUAUCACUACGAAAUCUUGAGAUCGGGCGUUCGACUAGCCCCCGGGAGAUUUUUUCCUCGAGCAA [G7U U17A U22C C77A], the nonsense suppression was at most 0.026. With CUCUCGGUAGCCAAGUUGGAUUAAGGCGCAAGACUUUAAUUUAUCACUACGAAAUCUUGAGAUCGGGCGUUCGAGUCGCCCCCGGGAGAUUUUUUCCUCGAGCAA [U20A C75G], the nonsense suppression was found to be 0.473. Take CUCUGGGUAGCCAAGGUGGUUUAAGGCGCAAGACUUUAAUUUAUCACUACGAAAUCUUGAGAUCGGGCGUUCGACUCGCCCCCGGGAGUUUUUUUCCUCGAGCAA [C5G U16G A89U]: the nonsense suppression was at most 0.026. Take CUCUGGGUAGCCAAGUUGGUUUAAGGCGCAAGACUUUAAUUUAUCACUACGAAAUCUUGAGAUCGGGCGUUCGACUCGCCCCCUGGAGAUUUUUUCCUCGAGCAA [C5G G84U]: the nonsense suppression came to 0.475.

For the variant CUCUCGGUAGCCAAGUUGGUUUAAGGCGCUAGACUUUAAUUUAUCACUACGAAAUCUUGAGAUCGGGCGUUCCACUCGCCCCCGGGAGAUUUUUUCCUCGAGCAA [A30U G73C], the nonsense suppression was at most 0.026. CUCUCGGUAGCCAAGUUGGUUUAAGGCGCACGACUUUAAUUUAUCACUACGAAAUCAUGAGAUCGGGCGUUCGACUCGCCCCCGGGAGAUUUUUUCCUCGAGCAA [A31C U57A]: the nonsense suppression was 0.219.

For CUCUCGGUAGCCAAGUUGGUUUAAGGCGAAAGACUUUAAUUUAUCACUACGAAAUCUUGCGAUCGGGCGUUCGACUCGCCCCCGGGAGAUUUUUUCCUCGAGCAA [C29A A60C], the nonsense suppression was at most 0.026. For CUCUCGGUAGCCAAGUUGGUUUAGGGCGCAAGACUUUAAUUUAUCACUACGAAAUCUUAAGAUCGGGCGUUCGACUCGCCCCCGGUAGAUUUUUUCCUCGAGCAA [A24G G59A G86U] the value was at most 0.026; for UUCUCGGUAGCCAAUUUGGUUUAAGGCGCAAGACGUUAAUUUAUCACUACGAAAUCUUGAGAUCGGGCGUUCGACUGACCCCCGGGAGAUUUUUUCCUCGAGCAA [C1U G15U U35G C77G G78A], at most 0.026. On to CACUCGGUAGCCAAGUUGGUUUAAGGCGCAAGACUUUAAUUUAUCACUACGAACUCUUGAGAUCCGGGGUUCGACGCGCCCCCGGGAGAUUUUUUCCUCGAGCAA [U2A A54C G65C C68G U76G], for which the nonsense suppression is at most 0.026. With CUCUCGGUAGCCAAGUUGGUUCAAGACGCAAGACUUUAAUUUAUCACUACGAAAUCUUGAGAUCGGGCGUUCCACUCGCCCCCGGGAGAUUUUUUCCUCGAGCAA [U22C G26A G73C], the nonsense suppression was at most 0.026.

For CUCUCGGUAGCAAAGUUGGUUUAAGGCGCAAGACUUUAAUUUAUCACUACGAAAUCUUGAGAUCGGGCGUUCGACUCGCCCCCGGGAGGUUUUUUCCUCGAGCAA [C12A A89G], the nonsense suppression is at most 0.026.

With CUUUCGGUAGCCAAGUUGGUUUAAGGCGCAAGACUUUAAUUUAUCACUACGAAUUCUUGAGAUCGGGCGUUCGACUCGCCCCAGGGAGUUUUUUUCCUCGAGCAA [C3U A54U C83A A89U], the nonsense suppression was at most 0.026. Consider CUCUCGGUAGCGAAGUUGGUUUAAGCCGCAAGACUUUAAUUUAUCACUACGAAAUCUUGAGAUCGGGCGUUCGACUCGCCCCCGGGAGAUUUUUUCCUCGAGCAA [C12G G26C], for which the nonsense suppression was at most 0.026. Turning to CUUUCGGUAGCCAAGUUGGUUUAAGGCCCAAGAUUUUAAUUUAUCACUACGAAAUCUUGAGAUCGGGCGUUCGACUCGCCCCCGGGAGAUUUUUUCCUCGAGCAA [C3U G28C C34U], the nonsense suppression was at most 0.026. Regarding CUCCCGGUCGCCAAGUUGGUUUAAGGCGCAAGACUUUAAUUUAUCACUACGAAAUCUUGAGAUCGGGCGUUCGACUCGCCCCCAGGAGAUUUUUUCCUCGAGCAA [U4C A9C G84A], the nonsense suppression worked out at 0.0602. As to CUCUCGGUAGCCAAGUUGGUUCAAGUCGGAAGACUUUAAUUUAUCACUACGAAAUCUUGAUAUCGUGCGUUCGACUCGCCCCCGGGACAUUUUUUCCUCGAGCAA [U22C G26U C29G G61U G66U G88C], the nonsense suppression is at most 0.026.
